Measured values from PMC4336329 (PLoS ONE, 2015).
Out of some 310,000 compounds screened, about 14,000 (4.5%) showed an effect of 50% or more. The effect is printed as a negative number. This is one part of the list.

Biological target: human ether-à-go-go-related gene (hERG) potassium channel (human, UniProt Q12809)
Experiment: primary screen, population patch clamp on CHO cells stably expressing hERG
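Further: peak tail current of the secondary pulse compared with the same well before compound.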

human ether-à-go-go-related gene (hERG) potassium channel, sequence (Q12809 whole entry, looked up): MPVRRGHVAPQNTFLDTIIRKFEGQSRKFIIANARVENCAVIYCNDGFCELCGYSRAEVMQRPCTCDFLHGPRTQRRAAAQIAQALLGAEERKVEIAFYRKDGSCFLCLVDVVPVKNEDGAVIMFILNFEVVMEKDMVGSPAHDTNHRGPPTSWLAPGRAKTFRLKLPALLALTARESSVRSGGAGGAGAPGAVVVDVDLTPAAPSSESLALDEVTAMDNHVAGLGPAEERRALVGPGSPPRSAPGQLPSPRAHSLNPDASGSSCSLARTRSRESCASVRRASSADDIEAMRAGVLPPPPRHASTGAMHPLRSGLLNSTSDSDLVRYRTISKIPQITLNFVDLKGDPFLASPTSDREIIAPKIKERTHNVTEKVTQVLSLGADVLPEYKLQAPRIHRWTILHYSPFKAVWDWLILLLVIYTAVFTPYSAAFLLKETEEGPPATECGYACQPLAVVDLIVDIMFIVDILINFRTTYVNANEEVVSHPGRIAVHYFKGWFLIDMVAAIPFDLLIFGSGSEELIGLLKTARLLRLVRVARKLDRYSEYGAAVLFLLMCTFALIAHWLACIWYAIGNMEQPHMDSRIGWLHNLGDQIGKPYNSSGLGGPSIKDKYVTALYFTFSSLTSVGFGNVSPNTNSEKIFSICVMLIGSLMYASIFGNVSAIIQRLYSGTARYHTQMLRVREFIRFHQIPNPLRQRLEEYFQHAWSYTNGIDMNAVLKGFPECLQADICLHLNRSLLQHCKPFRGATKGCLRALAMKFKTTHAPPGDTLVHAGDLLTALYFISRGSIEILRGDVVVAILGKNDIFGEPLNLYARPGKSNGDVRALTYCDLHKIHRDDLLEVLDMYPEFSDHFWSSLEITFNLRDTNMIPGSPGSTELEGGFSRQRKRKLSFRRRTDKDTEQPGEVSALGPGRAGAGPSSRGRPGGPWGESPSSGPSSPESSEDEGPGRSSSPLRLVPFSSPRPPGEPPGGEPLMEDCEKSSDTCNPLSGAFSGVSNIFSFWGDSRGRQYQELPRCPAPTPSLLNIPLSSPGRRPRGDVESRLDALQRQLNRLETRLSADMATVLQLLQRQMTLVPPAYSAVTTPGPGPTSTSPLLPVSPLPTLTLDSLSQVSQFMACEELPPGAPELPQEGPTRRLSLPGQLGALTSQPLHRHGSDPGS

Row | Compound | hERG current change (%, negative = inhibition) at 10uM
1 | O=c1cc(-c2ccccc2)nc2nc(CCc3ccccc3)[nH]n12 | 11.7%
2 | CN1C(=O)c2oc3ccccc3c(=O)c2C1c1cccnc1 (stereo not drawn) | -8.75%
3 | CCOC(=O)c1ncccc1NC(=O)CC(=O)Nc1cccnc1C(=O)OCC | 11.3%
4 | COc1ccc(CCNC(=O)CCC(=O)N2CC(C)Oc3ccc(Cl)cc32)cc1OC (stereo not drawn) | -19.2%
5 | CSCCC(NC(=O)c1cccc([N+](=O)[O-])c1)c1nc2ccccc2[nH]1 (stereo not drawn) | -49.3%
6 | CC(=O)c1ccc(N2C(=O)NC3(CCCCC3)C2=O)cc1 | -3.51%
7 | O=C1NC(=O)C2(Cc3ccccc3N3CCCC32)C(=O)N1 (stereo not drawn) | 1.45%
8 | COC(=O)[C@H]1C[C@@H]1[C@H](NP(=O)(c1ccccc1)c1ccccc1)c1ccccc1 | -0.634%
9 | c1ccc2[nH]c(NCCN3CCOCC3)nc2c1 | 10.9%
10 | CCCn1c(C)cc(/C=C(\C#N)C(=O)OCC(=O)Nc2cccc(OC)c2)c1C | 6.27%
11 | CCCCOC(=O)CSc1nnc(-c2cc(OC)c(OC)c(OC)c2)o1 | -11.9%
12 | CCc1noc(C)c1C(=O)Oc1ccc(N(C)S(=O)(=O)c2ccc(C)cc2)cc1 | -18.4%
13 | CN(C(=O)c1ccc(F)c(S(=O)(=O)N2CCOCC2)c1)C1CCCCC1 | 4.46%
14 | COc1ccc(C2C(C(=O)Nc3cccc(C)n3)CCC(=O)N2c2ccc(OC)cc2)cc1 (stereo not drawn) | -16.4%
15 | COc1ccc(NC(=O)COC(=O)C23CC4CC(CC(Cl)(C4)C2)C3)c(OC)c1 | 10.4%
16 | CN(c1ccc(C(=O)N2CCN(Cc3ccc4c(c3)OCO4)CC2)cc1)S(C)(=O)=O | -3.82%
17 | CNc1nc(N)nc(OC(C(F)(F)F)C(F)(F)F)n1 | -18.1%
18 | O=C(/C=C/c1ccc(Br)o1)Nc1nnc(C2CC2)s1 | -4.06%
19 | CCCn1c2c(c(=N)c3c1CCC3)CCC2.I | 7.05%

Row | Compound | hERG current change (%, negative = inhibition) at 10uM
20 | Nc1nc2c(s1)CCc1c-2cnn1-c1ccccc1 | 7.41%
21 | S=c1[nH]nc(C2CCCCC2)o1 | 11.7%
22 | CN(Cc1cccc(F)c1)C(=O)c1ccc2c(=O)n3c(nc2c1)CCC3 | 7.35%
23 | COc1ccc(C2C(=O)c3ccccc3C2=Nc2ccc(Br)cc2)cc1 (stereo not drawn) | 18%
24 | CCOc1ccccc1NC(=O)Nc1c(C)n(-c2ccccc2)c(=O)n1C | 0.0552%
25 | CN1C(=O)CSc2ccc(NC(=O)N3CCN(c4ccccc4)CC3)cc21 | -25.3%
26 | O=C(N/N=C/c1ccc(OC(F)F)cc1)c1cc[n+]([O-])cc1 | 7.4%
27 | CCOc1ccc(NC(=O)CCS(=O)(=O)c2cccc3nsnc23)cc1 | -7.64%
28 | C/C(=N\NC(=O)c1ccc(O)cc1)c1ccc(N2CCOCC2)cc1 | 4.69%
29 | CCOC(=O)c1sc2nc3n(c(=O)c2c1C)CCC(C)CC3 (stereo not drawn) | -9.1%
30 | Cc1ccc(N2CC(C(=O)Nc3nnc(SCC(=O)NCC4CCCO4)s3)CC2=O)cc1 (stereo not drawn) | 11%
31 | Cc1cc(C(=O)N/N=C/c2cccn2C)no1 | 1.69%
32 | O=C(NCC(c1ccco1)N1CCOCC1)c1c(F)cccc1F (stereo not drawn) | -2.75%
33 | CCc1ccc(C(C)NC(=S)NC2CCCCC2)cc1 (stereo not drawn) | 8.85%
34 | Cc1cc(C(=O)Nc2ccccc2)c(C)o1 | 5.89%
35 | Cc1ccc(Cn2ncc(Cl)c(Cl)c2=O)cc1 | -0.0595%
36 | NC(=O)c1nsc(C(=O)N(c2cccc(F)c2)C(C(=O)NC2CCCC2)c2ccco2)c1N (stereo not drawn) | 4.94%
37 | Cc1ccc(S(=O)(=O)N(Cc2n[nH]c(=S)n2-c2ccccc2)c2cccc(Cl)c2)cc1 | -4.59%
38 | CC(=O)Nc1ccc(S(=O)(=O)Nc2nc3ccccc3nc2N2CCCCCC2)cc1 | -8.36%

Row | Compound | hERG current change (%, negative = inhibition) at 10uM
39 | CC(NCc1ccco1)C(=O)N1CCc2ccccc2C1.Cl (stereo not drawn) | 14%
40 | C=CCOC(=O)C1=C(C)Nc2nc3ccccc3n2C1c1ccncc1 (stereo not drawn) | -2.4%
41 | CC(=NCCN1CCN(C(C)=C2C(=O)c3ccccc3C2=O)CC1)C1=C(O)CC(C)(C)CC1=O | -50.5%
42 | CN(C)S(=O)(=O)c1ccc(C(=O)OCC(=O)NCc2ccco2)cc1 | 11.6%
43 | CCNC(=O)CN(c1ccccc1OC)S(=O)(=O)c1cccs1 | -5.25%
44 | CCOc1ccccc1NC1c2ccccc2C(=O)N1Cc1ccco1 (stereo not drawn) | -24.6%
45 | CC1CCN(S(=O)(=O)N2CCCC(C(=O)NCc3ccc(F)cc3)C2)CC1 (stereo not drawn) | -3.29%
46 | CCc1cc2c(=O)n(-c3ccccc3)c(SCC(=O)O)nc2s1 | 17.6%
47 | Cc1ccc(C(=O)Cn2c(C(=O)O)cc3ccccc32)cc1 | 6.92%
48 | Cc1ccc(OCCC(=O)OCC(=O)NCc2ccccc2)cc1 | -0.864%
49 | COc1ccc(/C=N/NC(=O)c2cccc(OC(F)(F)C(F)F)c2)c(OC)c1OC | -3.77%
50 | O=C(NCc1ccncc1)/C(=N/O)c1ccccc1 | 18.7%
51 | O=C(Nc1cc(Sc2ccccn2)cc([N+](=O)[O-])c1)c1cccc(F)c1 | 8.13%
52 | Cc1cc(OCC(O)CN2CCCC2)ccc1C(C)C.Cl (stereo not drawn) | -20.1%
53 | Cc1cc(/C=C2/C(=O)NC(=O)N(Cc3ccco3)C2=O)c(C)n1-c1ccccc1 | 5.76%
54 | CCOC(=O)/C(C#N)=C/c1ccc(OC)c(OC)c1 | 2.78%
55 | C[C@H]1CN=C(Nc2ccccc2)N1CCC1CCCCC1 | -46.8%
56 | CCOC(=O)n1c(=O)n(Cc2ccc(OC)cc2)c2ccccc21 | -9.02%
57 | O=[N+]([O-])c1cc(Cl)c(O)c(-[n+]2c(-c3ccccc3)cc(-c3ccccc3)cc2-c2ccccc2)c1.[O-][Cl+3]([O-])([O-])[O-] | -38.7%
